# Results published in publication PMC9911399, “Two distinct binding modes provide the RNA-binding protein RbFox with extraordinary sequence specificity”.
# Changes are numbered by the printed parent chain; changes in the protein carry UniProt numbers. This is one part of the list.
# T1: RBFOX1 RRM (Homo sapiens, UniProt Q9NWB1 109-208)
# T1 sequence: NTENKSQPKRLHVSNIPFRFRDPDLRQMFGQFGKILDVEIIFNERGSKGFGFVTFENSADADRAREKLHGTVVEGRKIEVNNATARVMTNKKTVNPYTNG
# B1: CAAGCUA (DNA:RNA)
# RNA: GGGAGACCGGAAUUCAGAUUGUCCCAAGCUAUUAAAUCCCGUCGUAGCCACCA
# DNA 1: CAATCTGAATTCCGGTCTCCC
# DNA 2: TGGTGGCTACGACGGGATT
# B2: GGCUGUU (DNA:RNA)
# RNA: B1 RNA with C25G, A26G, A27C, G28U, C29G, A31U
# DNA 1: CAATCTGAATTCCGGTCTCCC
# DNA 2: TGGTGGCTACGACGGGATT
# B3: UGCCUGU (DNA:RNA)
# RNA: GGGAGACCGGAAUUCAGAUUGUCCUGCCUGUUUAAAUCCCGUCGUAGCCACCA
# DNA 1: CAATCTGAATTCCGGTCTCCC
# DNA 2: TGGTGGCTACGACGGGATT
# B4: UCUGACG (DNA:RNA)
# RNA: B1 RNA with C25U, A26C, A27U, C29A, U30C, A31G
# DNA 1: CAATCTGAATTCCGGTCTCCC
# DNA 2: TGGTGGCTACGACGGGATT
# B5: CAUGGAG (DNA:RNA)
# RNA: B1 RNA with A27U, C29G, U30A, A31G
# DNA 1: CAATCTGAATTCCGGTCTCCC
# DNA 2: TGGTGGCTACGACGGGATT
# B6: CUCUAUU (DNA:RNA)
# RNA: B1 RNA with A26U, A27C, G28U, C29A, A31U
# DNA 1: CAATCTGAATTCCGGTCTCCC
# DNA 2: TGGTGGCTACGACGGGATT
# B7: AAAUGGG (DNA:RNA)
# RNA: B1 RNA with C25A, G28U, C29G, U30G, A31G
# DNA 1: CAATCTGAATTCCGGTCTCCC
# DNA 2: TGGTGGCTACGACGGGATT
# B8: CCCUUGA (DNA:RNA)
# RNA: B3 RNA with U25C, G26C, C28U, U31A
# DNA 1: CAATCTGAATTCCGGTCTCCC
# DNA 2: TGGTGGCTACGACGGGATT
# B9: GGGCAGU (DNA:RNA)
# RNA: B3 RNA with U25G, C27G, U29A
# DNA 1: CAATCTGAATTCCGGTCTCCC
# DNA 2: TGGTGGCTACGACGGGATT
# B10: UCAUGGC (DNA:RNA)
# RNA: B3 RNA with G26C, C27A, C28U, U29G, U31C
# DNA 1: CAATCTGAATTCCGGTCTCCC
# DNA 2: TGGTGGCTACGACGGGATT
# B11: GCGGAGU (DNA:RNA)
# RNA: B3 RNA with U25G, G26C, C27G, C28G, U29A
# DNA 1: CAATCTGAATTCCGGTCTCCC
# DNA 2: TGGTGGCTACGACGGGATT
# B12: GUCACUU (DNA:RNA)
# RNA: B1 RNA with C25G, A26U, A27C, G28A, A31U
# DNA 1: CAATCTGAATTCCGGTCTCCC
# DNA 2: TGGTGGCTACGACGGGATT
# B13: GAGUCGU (DNA:RNA)
# RNA: B1 RNA with C25G, A27G, G28U, U30G, A31U
# DNA 1: CAATCTGAATTCCGGTCTCCC
# DNA 2: TGGTGGCTACGACGGGATT
# B14: GUCAUAA (DNA:RNA)
# RNA: B3 RNA with U25G, G26U, C28A, G30A, U31A
# DNA 1: CAATCTGAATTCCGGTCTCCC
# DNA 2: TGGTGGCTACGACGGGATT
# B15: AUCGUCG (DNA:RNA)
# RNA: B3 RNA with U25A, G26U, C28G, G30C, U31G
# DNA 1: CAATCTGAATTCCGGTCTCCC
# DNA 2: TGGTGGCTACGACGGGATT
# B16: UGAAAUA (DNA:RNA)
# RNA: B1 RNA with C25U, A26G, G28A, C29A
# DNA 1: CAATCTGAATTCCGGTCTCCC
# DNA 2: TGGTGGCTACGACGGGATT
# B17: AAGCUCA (DNA:RNA)
# RNA: B1 RNA with C25A, A27G, G28C, C29U, U30C
# DNA 1: CAATCTGAATTCCGGTCTCCC
# DNA 2: TGGTGGCTACGACGGGATT
# B18: CCAGAAA (DNA:RNA)
# RNA: B1 RNA with A26C, C29A, U30A
# DNA 1: CAATCTGAATTCCGGTCTCCC
# DNA 2: TGGTGGCTACGACGGGATT
# B19: UGGGAAC (DNA:RNA)
# RNA: B3 RNA with C27G, C28G, U29A, G30A, U31C
# DNA 1: CAATCTGAATTCCGGTCTCCC
# DNA 2: TGGTGGCTACGACGGGATT
# B20: GAGUACC (DNA:RNA)
# RNA: B1 RNA with C25G, A27G, G28U, C29A, U30C, A31C
# DNA 1: CAATCTGAATTCCGGTCTCCC
# DNA 2: TGGTGGCTACGACGGGATT
# B21: ACUCGCG (DNA:RNA)
# RNA: B3 RNA with U25A, G26C, C27U, U29G, G30C, U31G
# DNA 1: CAATCTGAATTCCGGTCTCCC
# DNA 2: TGGTGGCTACGACGGGATT
# B22: UGUCAGA (DNA:RNA)
# RNA: B3 RNA with C27U, U29A, U31A
# DNA 1: CAATCTGAATTCCGGTCTCCC
# DNA 2: TGGTGGCTACGACGGGATT
# B23: UUCCUGA (DNA:RNA)
# RNA: B3 RNA with G26U, U31A
# DNA 1: CAATCTGAATTCCGGTCTCCC
# DNA 2: TGGTGGCTACGACGGGATT
# B24: GGCGGAG (DNA:RNA)
# RNA: B3 RNA with U25G, C28G, U29G, G30A, U31G
# DNA 1: CAATCTGAATTCCGGTCTCCC
# DNA 2: TGGTGGCTACGACGGGATT
# B25: AGUCUGC (DNA:RNA)
# RNA: B3 RNA with U25A, C27U, U31C
# DNA 1: CAATCTGAATTCCGGTCTCCC
# DNA 2: TGGTGGCTACGACGGGATT
# B26: CUCGUCC (DNA:RNA)
# RNA: B1 RNA with A26U, A27C, C29U, U30C, A31C
# DNA 1: CAATCTGAATTCCGGTCTCCC
# DNA 2: TGGTGGCTACGACGGGATT
# B27: CGUUCCG (DNA:RNA)
# RNA: B1 RNA with A26G, A27U, G28U, U30C, A31G
# DNA 1: CAATCTGAATTCCGGTCTCCC
# DNA 2: TGGTGGCTACGACGGGATT
# B28: UCAGUGC (DNA:RNA)
# RNA: B3 RNA with G26C, C27A, C28G, U31C
# DNA 1: CAATCTGAATTCCGGTCTCCC
# DNA 2: TGGTGGCTACGACGGGATT
# B29: UACAAGA (DNA:RNA)
# RNA: B3 RNA with G26A, C28A, U29A, U31A
# DNA 1: CAATCTGAATTCCGGTCTCCC
# DNA 2: TGGTGGCTACGACGGGATT
# B30: GAUCGAA (DNA:RNA)
# RNA: B1 RNA with C25G, A27U, G28C, C29G, U30A
# DNA 1: CAATCTGAATTCCGGTCTCCC
# DNA 2: TGGTGGCTACGACGGGATT
# B31: ACUGUAG (DNA:RNA)
# RNA: B1 RNA with C25A, A26C, A27U, C29U, U30A, A31G
# DNA 1: CAATCTGAATTCCGGTCTCCC
# DNA 2: TGGTGGCTACGACGGGATT
# Target: T1, RBFOX1 RRM
# Assay: EMSA; HiTS-Eq, 1 nM pool, 10 min; buffer printed only for the single-RNA assays: 10 mM Tris pH 7.5, 150 mM NaCl, 3.4 mM EDTA, 0.001% NP-40, 30 C
# Conditions: tags: His6 N-terminal (pET28a); label: 5' 32P
# How it was run: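 Relative association constants, normalised to the cognate motif, were derived by comparing read counts of each RNA species with those of the control reaction. The RNA sequenced was the free fraction, separated by 8% native PAGE after a 10 min equilibration in 50 µL of 1 nM 5′-radiolabelled RNA (7 randomized nucleotides) with increasing concentrations of purified wild-type or mutant RbFox RRM.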
row,Binder,binding signal
1,B1,0.00318 KA relative to UGCAUGU
2,B2,0.0191 KA relative to UGCAUGU
3,B3,0.0501 KA relative to UGCAUGU
4,B4,0.0161 KA relative to UGCAUGU
5,B5,0.0079 KA relative to UGCAUGU
6,B6,0.0071 KA relative to UGCAUGU
7,B7,0.00315 KA relative to UGCAUGU
8,B8,0.018 KA relative to UGCAUGU
9,B9,0.0161 KA relative to UGCAUGU
10,B10,0.00874 KA relative to UGCAUGU
11,B11,0.013 KA relative to UGCAUGU
12,B12,0.00564 KA relative to UGCAUGU
13,B13,0.0129 KA relative to UGCAUGU
14,B14,0.00425 KA relative to UGCAUGU
15,B15,0.0104 KA relative to UGCAUGU
16,B16,0.00971 KA relative to UGCAUGU

row,Binder,binding signal
1,B17,0.0057 KA relative to UGCAUGU
2,B18,0.00434 KA relative to UGCAUGU
3,B19,0.03 KA relative to UGCAUGU
4,B20,0.0102 KA relative to UGCAUGU
5,B21,0.00699 KA relative to UGCAUGU
6,B22,0.0175 KA relative to UGCAUGU
7,B23,0.0194 KA relative to UGCAUGU
8,B24,0.0171 KA relative to UGCAUGU
9,B25,0.0172 KA relative to UGCAUGU
10,B26,0.00629 KA relative to UGCAUGU
11,B27,0.0138 KA relative to UGCAUGU
12,B28,0.018 KA relative to UGCAUGU
13,B29,0.0052 KA relative to UGCAUGU
14,B30,0.0122 KA relative to UGCAUGU
15,B31,0.0082 KA relative to UGCAUGU
